This is an account of results in publication PMC4336329 (PLoS ONE, 2015).

Out of some 310,000 compounds screened, about 14,000 (4.5%) showed an effect of 50% or more. The effect is printed as a negative number. The list shows a part of the results.
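Further: peak tail current of the secondary pulse compared with the same well before compound.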

human ether-à-go-go-related gene (hERG) potassium channel, sequence (Q12809 whole entry, looked up): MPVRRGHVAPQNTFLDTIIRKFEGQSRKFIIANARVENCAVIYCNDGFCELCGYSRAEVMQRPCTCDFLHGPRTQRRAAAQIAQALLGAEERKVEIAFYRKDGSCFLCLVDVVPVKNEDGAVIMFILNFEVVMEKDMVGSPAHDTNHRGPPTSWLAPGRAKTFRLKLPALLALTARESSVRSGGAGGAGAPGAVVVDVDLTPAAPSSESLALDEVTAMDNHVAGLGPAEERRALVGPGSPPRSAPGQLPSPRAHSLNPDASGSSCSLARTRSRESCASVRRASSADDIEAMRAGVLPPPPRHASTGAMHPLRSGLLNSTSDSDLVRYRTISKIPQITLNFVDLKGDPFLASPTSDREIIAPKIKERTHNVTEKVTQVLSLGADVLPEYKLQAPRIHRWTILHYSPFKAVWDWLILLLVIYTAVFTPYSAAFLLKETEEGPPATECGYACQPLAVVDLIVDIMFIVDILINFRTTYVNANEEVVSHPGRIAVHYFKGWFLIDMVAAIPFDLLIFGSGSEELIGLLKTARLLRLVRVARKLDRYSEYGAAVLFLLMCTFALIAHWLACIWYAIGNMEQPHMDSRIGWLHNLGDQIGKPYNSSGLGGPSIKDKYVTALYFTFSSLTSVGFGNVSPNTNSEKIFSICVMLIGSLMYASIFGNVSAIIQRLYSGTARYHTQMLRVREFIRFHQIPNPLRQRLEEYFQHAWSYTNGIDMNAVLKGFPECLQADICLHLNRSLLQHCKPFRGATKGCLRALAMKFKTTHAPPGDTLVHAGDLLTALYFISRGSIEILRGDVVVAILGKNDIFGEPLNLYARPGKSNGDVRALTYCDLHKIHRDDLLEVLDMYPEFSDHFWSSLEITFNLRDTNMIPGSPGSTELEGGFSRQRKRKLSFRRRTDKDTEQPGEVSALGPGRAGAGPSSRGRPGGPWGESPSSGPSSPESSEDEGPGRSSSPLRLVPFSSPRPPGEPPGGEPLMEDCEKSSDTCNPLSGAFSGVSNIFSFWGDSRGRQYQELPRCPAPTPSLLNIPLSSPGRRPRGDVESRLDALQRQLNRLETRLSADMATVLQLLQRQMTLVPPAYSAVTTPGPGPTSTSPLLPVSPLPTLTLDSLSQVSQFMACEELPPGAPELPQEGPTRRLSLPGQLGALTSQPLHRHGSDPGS

The assay concerns the target human ether-à-go-go-related gene (hERG) potassium channel (human, UniProt Q12809). Description: primary screen, population patch clamp on CHO cells stably expressing hERG.
On to `CCOC(=O)CCC(=O)Nc1cccc([N+](=O)[O-])c1`, for which the “hERG current change (%, negative = inhibition) at 10uM” value is -2.79%.
Next, `Cc1ccnc(NS(=O)(=O)c2ccc(NC(=O)CC(C)c3ccccc3)cc2)n1` (stereo not drawn): 20.7%; `CC(C)n1nc(C(=O)OCC(=O)N(C)C2CCS(=O)(=O)C2)c2ccccc2c1=O` (stereo not drawn): 5.75%; `Cl.Cn1nnc(C(O)CNCc2cccs2)n1` (stereo not drawn): 9.06%.
Next, `O=C(CCc1cn2ccccc2n1)NC1CCCc2c1cnn2-c1ccccc1F` (stereo not drawn): 0.178%.
As for `CCc1ccc(OCC(=O)NC(=S)Nc2ccc(C)cc2C)c(Br)c1`, the figure is 7.39%.
For the molecule `Cc1cc(C(=O)CSc2nnc(-c3ccccc3)n2C)c(C)n1C`, the “hERG current change (%, negative = inhibition) at 10uM” value was -22.5%.
As for `CC(=O)c1cccc(NC(=O)Nc2cc3sccc3n2C)c1`, the figure is 5.42%.
`O=C(Nc1ccc(OCc2ccccc2)cc1)c1cccs1`: the “hERG current change (%, negative = inhibition) at 10uM” value is on record as 13.7%.
As for `OCCOCCOCCn1c2ccccc2c2ccccc21`, the figure is -2.67%; as for `Cc1ccc(C(C(=O)NC2CCCC2)N(C(=O)c2csnn2)C2CC2)cc1` (stereo not drawn), -1.48%.
As to `CSc1nc2sc3c(c2c(=O)[nH]1)CCC3`, the “hERG current change (%, negative = inhibition) at 10uM” value is given as 8.02%.
As for `Cc1cc(C)c(OCCOCCN2CCCC2)c(C)c1`, the figure is -20.2%.
Next, `CCOC(=O)c1ccc(NC(=O)Nc2ncccc2C)cc1`: -5.35%.
Next, `O=C(O)COCC(=O)Nc1ccc(-n2cnnn2)cc1`: 17.2%.
Turning to `CCOC(=O)c1c(C)sc2c1N(C(=O)CN(CC)CC)c1cc(Cl)ccc1S2`, the “hERG current change (%, negative = inhibition) at 10uM” value is -21%.
As for `Cc1no[n+]([O-])c1COc1ccc(/C=C(\C#N)C(N)=O)cc1`, the figure is -35.4%; as for `O=[N+]([O-])c1cccnc1Oc1ccc(C2SCCS2)cc1`, 5.72%.
As for `CC(c1ccccc1)C(CC(=O)O)C(=O)NC1CCCCC1` (stereo not drawn), the figure is 24%; as for `COc1ccc(C(=O)NNC(=O)CN2CCC(n3nnc4cc(C)ccc43)CC2)cc1`, -15%; as for `O=C(NCc1ccco1)c1ccc2c(c1)N(Cc1ccccc1)C(=O)CS2=O` (stereo not drawn), -0.828%.
On to `CCCc1ccc(OC(=O)c2ccc(O)cc2Cl)cc1`, for which the “hERG current change (%, negative = inhibition) at 10uM” value was -1.26%.
As for `Cc1ccc(C)c(NC(=O)c2oc(=O)c3ccccc3c2-c2ccccc2)c1`, the figure is -16.4%; as for `C=CCn1c(CCNC(=O)c2cccs2)n[nH]c1=S`, 2.16%.
As for `Cc1ccc(C)c(N(C(=O)c2ccco2)C(C(=O)NC2CCCC2)c2ccco2)c1` (stereo not drawn), the figure is 2.25%.
As for `NC(=O)c1ccc(NC(=O)CCc2nc3sc4c(c3c(=O)[nH]2)CCCC4)cc1`, the figure is 6.99%; as for `Cc1ccc(S(=O)(=O)Nc2nc3ccccc3nc2NCC2CCCO2)cc1` (stereo not drawn), 2.28%.
Turning to `CN(CC(=O)Nc1ccc(S(=O)(=O)N2CCCC2)cc1)Cc1c(F)cccc1Cl`, the “hERG current change (%, negative = inhibition) at 10uM” value was -7.41%.
As for `c1ccc(CCOn2ccnc2)cc1`, the figure is 11.7%.
As for `CCCNc1c(NC(=O)C2CCC(C)CC2)c(=O)oc2ccccc12` (stereo not drawn), the figure is 8.35%; as for `CCOc1ccc(CNC(=O)CCSCc2ccccc2F)cc1OC`, 5.18%.
For `Cc1ccc(S(=O)(=O)CCC(=O)OC(C)C(=O)c2c(C)[nH]c3ccccc23)cc1` (stereo not drawn), the “hERG current change (%, negative = inhibition) at 10uM” value is 3.68%.
In the case of `OCCC1CN(Cc2cnc(N3CCCC3)s2)CCN1C1CCCC1` (stereo not drawn), the “hERG current change (%, negative = inhibition) at 10uM” value is -7.38%.
As for `CCN(CC)c1ccc(/C=C2\C(=O)NC(=O)N(Cc3ccco3)C2=O)cc1`, the figure is -4.07%; as for `O=C(NCCOc1ccccc1)C(c1ccccc1)c1ccccc1`, 4.64%.
As for `Cc1[nH]cnc1C(=O)N/N=C/c1c(Cl)cccc1Cl`, the figure is 10.1%.
With `Cc1noc(C)c1C(=O)N1CCN(c2cccc(Cl)c2)CC1`, the “hERG current change (%, negative = inhibition) at 10uM” value is -3.58%.
With `O=C(Nc1ccc(NC(=O)c2cccs2)cc1)c1cccnc1`, the “hERG current change (%, negative = inhibition) at 10uM” value is listed as 21.9%.
As for `O=C(NC1CC2CCCC(C1)N2C(=O)NCc1ccccc1)C1CC1` (stereo not drawn), the figure is 4.22%.
As for `COc1ccc(C(=O)NCc2ccc(N3CCN(C(=O)OC(C)(C)C)CC3)cc2)cc1`, the figure is -12.7%; as for `CCOC(=O)C1=C(C)N=c2s/c(=C/c3ccc(OCC(=O)O)cc3)c(=O)n2C1c1ccc(SC)cc1` (stereo not drawn), 20.8%.
Next, `N#Cc1c(NC(=S)NC(=O)c2ccccc2)sc2c1CCCC2`: 11.7%.
As to `Cc1ccc(-n2cc(CNCCc3ncc(C)[nH]3)c(-c3ccc(F)cc3)n2)cc1`, the “hERG current change (%, negative = inhibition) at 10uM” value is listed as -47.4%.
Consider `COc1nn(C(C)C(=O)N2N=C(C(F)F)CC2(O)C(F)F)cc1[N+](=O)[O-]` (stereo not drawn), for which the “hERG current change (%, negative = inhibition) at 10uM” value stood at 0.291%.
Next, `Cc1ccc(NC(=O)CSc2nnc(CN3CCOCC3)n2C)cc1C`: -1.39%.
